# Source: PubChem BioAssay (NCATS)
# The inconclusive results got no clear call from the source; some entries with a clear call stand among them for comparison. For part of these data: A potency beside an inconclusive call is a rough fit, not a confirmed value. For part of these data: A note “side channel” means that the fit belongs to a control or component signal, not to the main read-out. Activity calls are given as the source filed them. Unless noted, calls follow the shape of the dose curve; as a rule, active = well fitted curve in the direction sought with a large enough effect; inconclusive = small, poorly fitted or top-dose-only effect, or another doubt; inactive = no such curve, though single readings can be large; an effect the other way counts as inactive or inconclusive.
# Legend:
# [1] = AP1 Signaling Pathway (AID 357; active = well fitted curve in either direction with a large enough effect, not every such curve was filed as active; inconclusive = small, poorly fitted or top-dose-only effect, or another doubt;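 also: ME-180 reporter cells stimulated with EGF at its EC50 level; top concentration of the series differs between compounds; % is scaled to controls: 0 for no effect and ±100 for the full control effect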); conditions: ME-180 AP-1-bla reporter, EGF-induced, beta-lactamase ratio, 5 h; at 17.2 µM (top of the series) unless noted
# Outline: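 Beta-lactamase reporter under AP-1 response element, ME-180 background. Stimulus: EC50 EGF. Compound exposure 5 h, 37 °C. Detection: CCF4, 2.5 h RT, 460/530 nm. Values: AC50 from titration.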
# [2] = biological target: 3',5'-cyclic-AMP phosphodiesterase 4B (Homo sapiens) (UniProt Q07343); assay: qHTS Assay for Inhibitors of PDE-IV (AID 607; active = well fitted activation curve with a large enough effect in the main read-out, with a control signal flat, not every such curve was filed as active; inconclusive = small, poorly fitted or top-dose-only effect, or effect the other way, or a change in a side signal; also: % of control where 0% means no effect); conditions: HEK293 ACTOne CNG channel cells, membrane potential fluorescence; activation (PDE inhibition): at 22.9 µM (top of the series)
# Outline: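 The readout is membrane depolarisation from a cAMP-sensing CNG channel, detected with a potential dye at ex 535/em 590. Cells were HEK293-derived (endogenous PDE-IV) at 1000 cells/well, titrated up to 22.9 uM final.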
# [3] = biological target: Ubiquitin carboxyl-terminal hydrolase 1 (Homo sapiens) (UniProt O94782); assay: Inhibitors of USP1/UAF1: Pilot qHTS (AID 504865); also: potency is read from the fitted curve at half-maximal effect;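 also: rhodamine fluorescence freed from ubiquitin-rhodamine substrate followed over time; nearly all actives have a fitted effect of over 35% in size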; as to activity change, negative = inhibition: top concentration of the series differs between compounds; % is scaled to controls: 0 for no effect and ±100 for the full control effect
# Outline: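 Kinetic fluorescence assay: 1nM USP1/UAF1, 15 min compound preincubation, then 150nM Ub-Rho; 480/540 nm.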
# [4] = Cell Viability - Renal Proximal Tubule (AID 545); conditions: renal proximal tubule cells viability, primary cells of rat origin; activity change, negative = cytotoxicity: at 91.7 µM (top of the series);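 also: cells exposed to compound for 40 hours; 0% = DMSO only and -100% = 100 µM tamoxifen; nearly all actives have a fitted effect of over 40% in size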
# Outline: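 Cytotoxicity is scored as a concentration-dependent drop in cellular ATP in primary rat renal proximal tubule cells exposed for 40 hr. AC50 derives from Hill modelling.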
# [5] = biological target: Cytochrome P450 2C19 (Homo sapiens) (UniProt P33261); assay: qHTS Assay for Inhibitors and Substrates of Cytochrome P450 2C19 (AID 899); also: nearly all actives have a fitted effect of over 60% in size; also: potency is read from the fitted curve at half-maximal effect; as to activity, negative = inhibition: top concentration of the series differs between compounds; % is scaled to controls: 0 for no effect and ±100 for the full control effect
# Outline: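 5nM enzyme + 10uM Luciferin-H EGE (=KM), 50mM KPO4; cpd pin-transferred, 10 min 37C; NADPH regen, 60 min 37C; stopped w/ luciferin detection reagent, 20 min; luminescence. Normalized to 57uM ketoconazole (AC100).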
# [6] = MultiTox-Fluor Cytotoxicity Assay - LYMP1-002 - Dead Cells (AID 960); conditions: LYMP1-002 lymphoblastoid cells, dead-cell protease fluorescence; cytotoxicity (dead cells): at 46.1 µM (top of the series);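 also: 0% = DMSO and 100% = tetraoctylammonium bromide; nearly all actives have a fitted effect of over 60% in size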
# Outline: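 Human lymphoblastoid cells (LYMP1-002), 2500/well in complete medium, were exposed to compounds for 16 hr at 37 C. Dead-cell protease activity was read as bis-AAF-R110 fluorescence (Ex/Em 485/520), normalized to DMSO and 15 uM tetraoctylammonium bromide; AC50 from Hill fits.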
# [7] = Cell Viability - LYMP2-017 (AID 972); also: % is scaled to controls: 0 for no effect and ±100 for the full control effect; nearly all actives have a fitted effect of over 55% in size
# Outline: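 Human lymphoblastoid cells (2500/well) were seeded in complete medium, held 5 hr at 37 C, then exposed to compounds for 24 hr at 37 C. Intracellular ATP was read by CellTiter-Glo luminescence after 30 min at room temperature, with AC50 values from Hill-equation fits.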
# [8] = biological target: Estrogen receptor (Homo sapiens) (UniProt P03372); assay: qHTS assay for small molecule antagonists of estrogen receptor alpha signaling (AID 588513; active = well fitted curve in the direction sought with a large enough effect in the signal ratio, with a control signal flat, not every such curve was filed as active; inconclusive = small, poorly fitted or top-dose-only effect, or effect the other way, or a change in a side signal; inactive = no such curve, though single readings can be large or run the other way; the % refers to the signal ratio; also: potency is read from the fitted curve at half-maximal effect); conditions: ER-alpha-UAS-bla HEK293, beta-lactamase ratio, antagonist mode; activity, negative = inhibition: at 76.9 µM (top of the series) unless noted
# Outline: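 Cells were plated at 5000/well and incubated 4 h at 37 C. Compounds were added as 1:2 dilution series, duplicates. 17-beta-estradiol (0.5nM final) was added for 18 h before CCF4 detection.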
# [9] = biological target: Estrogen receptor (Homo sapiens) (UniProt P03372); assay: qHTS assay for small molecule agonists of estrogen receptor alpha signaling (AID 588514; calls by dose curve; also: potency is read from the fitted curve at half-maximal effect; nearly all actives have a fitted effect of over 70% in size); conditions: ER-alpha-UAS-bla HEK293, beta-lactamase ratio, 18 h; activation: at 76.8 µM (top of the series), percent of full estradiol response, vehicle zero
# Outline: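 ER-alpha-UAS-bla GripTite HEK 293 cells in medium with 2% charcoal/dextran-treated FBS were treated with compound titrations at 37 C for 18 hrs; beta-lactamase reporter read by CCF4 fluorescence after 2 hrs at RT.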
# [10] = biological target: Peroxisome proliferator-activated receptor gamma (Homo sapiens) (UniProt P37231); assay: qHTS assay for small molecule antagonists of peroxisome proliferator-activated receptor gamma signaling (AID 588537; active = well fitted inhibition curve with a large enough effect in the signal ratio, with a control signal flat, not every such curve was filed as active; inconclusive = small, poorly fitted or top-dose-only effect, or effect the other way, or a change in a side signal; the % refers to the signal ratio;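 also: reporter cells co-stimulated with 50 nM rosiglitazone agonist during compound treatment; % of control where 0% means no effect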); conditions: HEK293 PPARg-UAS-bla, beta-lactamase ratio, antagonist mode; activity, negative = inhibition: at 76.8 µM (top of the series)
# Outline: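 Inhibitors of agonist-stimulated UAS-bla reporter activity were sought in HEK293 cells; rosiglitazone (50 nM) defined full signal and DMSO baseline. Curves fitted to Hill model gave IC50 and efficacy.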
# [11] = biological target: Thyroid hormone receptor beta (Homo sapiens) (UniProt P10828); assay: qHTS assay for small molecule antagonists of thyroid hormone receptor beta signaling (AID 588547; active = well fitted inhibition curve with a large enough effect in the signal ratio, with a control signal flat, not every such curve was filed as active; inconclusive = small, poorly fitted or top-dose-only effect, or effect the other way, or a change in a side signal; the % refers to the signal ratio; also: potency is read from the fitted curve at half-maximal effect;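 as to activity change % (negative = inhibition): cells stimulated with 0.4 nM T3 agonist during compound exposure; % is scaled to controls: 0 for no effect and ±100 for the full control effect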); conditions: TR-UAS-bla HEK293, beta-lactamase ratio, antagonist mode, 18 h
# Outline: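 Inhibition of T3-driven (0.4nM final) beta-lactamase reporter activity was measured over 0.59 nM to 92 uM compound after 18 h at 37 C. The cells were GripTite HEK293 TR-UAS-bla in charcoal/dextran-stripped serum, with CCF4 ratio read-out and IC50 from Hill fits.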
# [12] = qHTS assay to identify small molecules that stimulate interleukin-8 (IL-8) secretion (AID 651758; active = well fitted activation curve with a large enough effect in the signal ratio; inconclusive = small, poorly fitted or top-dose-only effect, or effect the other way, or a change in a side signal; the % refers to the signal ratio; also: 0% is about no effect); conditions: HTRF ratio (665/615); activation: at 92.2 µM (top of the series)
# Outline: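 Secreted IL-8 measured by TR-FRET sandwich (cryptate and XL665 antibodies) from THP-1 cells exposed to compound overnight (16 hrs, 37 C).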
# [13] = biological target: Nuclear receptor ROR-gamma (Homo sapiens) (UniProt P51449); assay: qHTS assay for small molecule antagonists of the retinoid-related orphan receptor gamma (ROR-gamma) signaling pathway (AID 651802); also: potency is read from the fitted curve at half-maximal effect; nearly all actives have a fitted effect of over 60% in size
# Outline: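 CHO cells carrying TET-inducible ROR-gamma and an ROR response element–luciferase reporter were exposed to compound, then induced with doxycycline. After 16hr at 37C, luminescence was read; lower signal indicates antagonism.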
# [14] = qHTS Assay for Identification of Small Molecule Agonists for Hypoxia Response Element Signaling Pathway (AID 914; active = well fitted activation curve with a large enough effect in the signal ratio, with a control signal flat, not every such curve was filed as active; inconclusive = small, poorly fitted or top-dose-only effect, or effect the other way, or a change in a side signal; the % refers to the signal ratio; also: potency is read from the fitted curve at half-maximal effect; as to activation: top concentration of the series differs between compounds; % of control where 0% means no effect); conditions: ME-180 (cervical carcinoma) HRE-bla reporter, beta-lactamase ratio, CoCl2, 17 h; activation: stronger effect = higher value
# Outline: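 HRE-bla ME-180 assay for agonist-like enhancement of an EC50 CoCl2 stimulus: 17 h at 37 degrees Celsius, CCF4 for 2.5 h, ratiometric 460/530 nm signal converted to %Activity and fitted to AC50.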
# [15] = biological target: Cytochrome P450 3A4 (Homo sapiens) (UniProt P08684); assay: qHTS Assay for Inhibitors and Substrates of Cytochrome P450 3A4 (AID 884); also: potency is read from the fitted curve at half-maximal effect; nearly all actives have a fitted effect of over 50% in size
# Outline: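 20 nM human CYP3A4 with 25 uM Luciferin-PPXE (at KM) in 200 mM KPO4, preincubated 10 min with compound; NADPH regeneration started a 60 min RT reaction. Luciferin detected by luminescence, normalized to 57 uM ketoconazole as full inhibition.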
# [16] = biological target: Cytochrome P450 2C9 (Homo sapiens) (UniProt P11712); assay: qHTS Assay for Inhibitors and Substrates of Cytochrome P450 2C9 (AID 883); conditions: recombinant CYP2C9, luciferin-H luminescence, 60 min; activity change, negative = inhibition: at 57.1 µM (top of the series); also: potency is read from the fitted curve at half-maximal effect; nearly all actives have a fitted effect of over 60% in size
# Outline: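 Inhibition of CYP2C9 is scored as loss of luminescence, with 57uM sulphaphenazole defining 100% inhibition. Substrate Luciferin-H is used at 100uM, equal to its KM; enzyme at 10nM in 25mM KPO4, 60 min at 37C with NADPH regeneration.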
# Tags tell the direction and shape of the fitted curve or compound fluorescence and quenching.
# UniProt O94782, sequence (O94782 whole entry, looked up): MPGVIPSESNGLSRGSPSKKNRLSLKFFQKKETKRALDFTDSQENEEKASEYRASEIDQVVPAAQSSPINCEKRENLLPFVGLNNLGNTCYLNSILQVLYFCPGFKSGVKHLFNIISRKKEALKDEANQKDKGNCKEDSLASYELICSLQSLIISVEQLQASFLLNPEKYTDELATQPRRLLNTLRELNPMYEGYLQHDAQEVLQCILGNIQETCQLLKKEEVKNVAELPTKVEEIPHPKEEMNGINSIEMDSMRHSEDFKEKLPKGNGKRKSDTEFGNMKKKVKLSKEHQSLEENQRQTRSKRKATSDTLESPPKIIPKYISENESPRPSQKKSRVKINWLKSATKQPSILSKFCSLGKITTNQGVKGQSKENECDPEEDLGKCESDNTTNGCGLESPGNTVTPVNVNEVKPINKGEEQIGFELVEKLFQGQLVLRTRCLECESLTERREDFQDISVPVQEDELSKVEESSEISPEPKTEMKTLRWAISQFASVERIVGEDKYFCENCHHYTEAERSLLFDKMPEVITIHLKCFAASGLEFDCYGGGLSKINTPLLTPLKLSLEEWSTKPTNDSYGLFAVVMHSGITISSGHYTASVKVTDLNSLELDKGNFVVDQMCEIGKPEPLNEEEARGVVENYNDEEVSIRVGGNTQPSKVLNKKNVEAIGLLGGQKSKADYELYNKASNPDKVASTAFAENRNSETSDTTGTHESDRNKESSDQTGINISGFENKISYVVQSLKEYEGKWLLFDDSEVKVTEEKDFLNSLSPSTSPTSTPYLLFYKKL
# UniProt P10828, sequence (P10828 whole entry, looked up): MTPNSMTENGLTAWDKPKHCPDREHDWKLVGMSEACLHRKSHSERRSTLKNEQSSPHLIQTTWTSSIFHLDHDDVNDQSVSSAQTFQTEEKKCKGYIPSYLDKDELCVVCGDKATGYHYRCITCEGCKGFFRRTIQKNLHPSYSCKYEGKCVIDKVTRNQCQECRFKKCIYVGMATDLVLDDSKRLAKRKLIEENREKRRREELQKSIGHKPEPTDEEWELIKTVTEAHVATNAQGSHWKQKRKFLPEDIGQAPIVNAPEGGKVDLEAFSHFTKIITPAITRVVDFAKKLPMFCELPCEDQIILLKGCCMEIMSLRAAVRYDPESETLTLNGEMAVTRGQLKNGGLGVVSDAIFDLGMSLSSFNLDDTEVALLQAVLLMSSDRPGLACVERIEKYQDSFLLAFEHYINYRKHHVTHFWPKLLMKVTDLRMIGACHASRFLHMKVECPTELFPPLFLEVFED
# UniProt Q07343, sequence (Q07343 whole entry, looked up): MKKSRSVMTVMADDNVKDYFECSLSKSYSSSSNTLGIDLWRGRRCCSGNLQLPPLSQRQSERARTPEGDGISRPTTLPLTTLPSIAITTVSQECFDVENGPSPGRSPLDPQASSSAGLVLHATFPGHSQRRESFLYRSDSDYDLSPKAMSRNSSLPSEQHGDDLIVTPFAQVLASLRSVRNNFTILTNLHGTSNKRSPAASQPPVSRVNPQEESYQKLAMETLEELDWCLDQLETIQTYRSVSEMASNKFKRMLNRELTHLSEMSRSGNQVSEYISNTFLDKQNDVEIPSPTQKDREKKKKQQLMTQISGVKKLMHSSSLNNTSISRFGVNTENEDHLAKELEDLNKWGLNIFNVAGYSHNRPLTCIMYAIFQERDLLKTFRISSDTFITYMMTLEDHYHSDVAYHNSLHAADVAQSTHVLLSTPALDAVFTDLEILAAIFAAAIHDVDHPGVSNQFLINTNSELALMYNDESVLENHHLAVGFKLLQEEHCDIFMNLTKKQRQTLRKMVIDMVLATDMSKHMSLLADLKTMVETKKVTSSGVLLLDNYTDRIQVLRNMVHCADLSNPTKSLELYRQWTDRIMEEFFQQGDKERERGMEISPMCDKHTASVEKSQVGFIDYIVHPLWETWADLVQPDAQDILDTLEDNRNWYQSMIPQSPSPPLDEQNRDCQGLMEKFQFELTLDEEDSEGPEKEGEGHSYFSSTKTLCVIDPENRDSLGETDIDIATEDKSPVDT
# UniProt P03372, sequence (P03372 whole entry, looked up): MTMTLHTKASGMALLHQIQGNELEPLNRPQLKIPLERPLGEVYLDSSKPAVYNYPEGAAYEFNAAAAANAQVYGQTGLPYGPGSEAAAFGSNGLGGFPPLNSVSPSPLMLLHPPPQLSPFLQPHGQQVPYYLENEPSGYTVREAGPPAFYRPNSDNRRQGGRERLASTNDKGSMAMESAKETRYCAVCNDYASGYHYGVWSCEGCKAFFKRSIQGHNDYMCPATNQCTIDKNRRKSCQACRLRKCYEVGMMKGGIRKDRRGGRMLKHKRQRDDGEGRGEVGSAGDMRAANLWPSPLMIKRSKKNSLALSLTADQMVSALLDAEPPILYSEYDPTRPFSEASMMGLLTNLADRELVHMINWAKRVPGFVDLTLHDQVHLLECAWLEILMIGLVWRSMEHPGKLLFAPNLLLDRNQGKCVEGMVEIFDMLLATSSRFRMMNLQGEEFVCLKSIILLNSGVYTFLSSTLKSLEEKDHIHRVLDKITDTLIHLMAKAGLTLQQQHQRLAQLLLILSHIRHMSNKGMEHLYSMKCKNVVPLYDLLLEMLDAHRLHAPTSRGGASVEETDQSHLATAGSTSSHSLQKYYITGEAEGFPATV
# UniProt P33261, sequence (P33261 whole entry, looked up): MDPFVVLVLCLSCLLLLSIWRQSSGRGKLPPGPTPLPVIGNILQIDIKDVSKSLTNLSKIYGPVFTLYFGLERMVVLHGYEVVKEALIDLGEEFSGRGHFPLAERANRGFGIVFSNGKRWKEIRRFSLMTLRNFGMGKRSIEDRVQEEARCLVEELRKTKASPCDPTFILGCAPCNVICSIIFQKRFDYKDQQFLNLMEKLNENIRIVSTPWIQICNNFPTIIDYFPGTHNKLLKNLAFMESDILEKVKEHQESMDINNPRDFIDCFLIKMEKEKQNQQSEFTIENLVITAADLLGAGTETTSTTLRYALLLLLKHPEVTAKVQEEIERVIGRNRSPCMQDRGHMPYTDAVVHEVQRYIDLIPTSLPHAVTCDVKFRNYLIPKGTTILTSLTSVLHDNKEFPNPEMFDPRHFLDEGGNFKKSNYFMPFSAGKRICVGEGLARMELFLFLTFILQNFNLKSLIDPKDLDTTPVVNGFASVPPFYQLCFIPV
# UniProt P11712, sequence (P11712 whole entry, looked up): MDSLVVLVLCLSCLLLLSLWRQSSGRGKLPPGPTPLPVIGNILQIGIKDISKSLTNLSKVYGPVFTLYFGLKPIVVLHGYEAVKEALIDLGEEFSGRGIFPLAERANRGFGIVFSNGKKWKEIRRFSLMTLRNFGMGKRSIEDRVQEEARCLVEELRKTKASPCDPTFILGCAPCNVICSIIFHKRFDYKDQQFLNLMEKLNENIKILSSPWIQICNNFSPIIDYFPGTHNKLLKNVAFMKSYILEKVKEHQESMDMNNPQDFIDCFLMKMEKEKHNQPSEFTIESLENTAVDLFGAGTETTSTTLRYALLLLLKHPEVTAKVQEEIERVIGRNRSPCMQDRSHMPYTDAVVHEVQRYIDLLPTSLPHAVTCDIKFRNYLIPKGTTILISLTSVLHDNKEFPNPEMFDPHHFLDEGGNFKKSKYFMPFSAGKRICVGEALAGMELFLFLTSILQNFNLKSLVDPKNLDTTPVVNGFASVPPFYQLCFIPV
# UniProt P08684, sequence (P08684 whole entry, looked up): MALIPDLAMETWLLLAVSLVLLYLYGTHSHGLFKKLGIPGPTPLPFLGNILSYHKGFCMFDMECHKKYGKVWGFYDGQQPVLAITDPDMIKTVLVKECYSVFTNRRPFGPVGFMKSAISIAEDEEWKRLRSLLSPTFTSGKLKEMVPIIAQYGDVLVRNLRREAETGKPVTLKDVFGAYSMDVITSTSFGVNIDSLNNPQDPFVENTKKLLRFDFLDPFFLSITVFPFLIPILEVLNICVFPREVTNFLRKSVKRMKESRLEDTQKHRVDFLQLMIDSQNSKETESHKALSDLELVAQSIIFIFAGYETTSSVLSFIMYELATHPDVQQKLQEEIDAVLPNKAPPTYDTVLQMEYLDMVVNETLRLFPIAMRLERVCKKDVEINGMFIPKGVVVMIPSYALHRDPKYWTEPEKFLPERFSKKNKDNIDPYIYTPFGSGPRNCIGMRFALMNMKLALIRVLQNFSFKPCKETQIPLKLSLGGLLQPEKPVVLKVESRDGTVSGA
# UniProt P51449, sequence (P51449 whole entry, looked up): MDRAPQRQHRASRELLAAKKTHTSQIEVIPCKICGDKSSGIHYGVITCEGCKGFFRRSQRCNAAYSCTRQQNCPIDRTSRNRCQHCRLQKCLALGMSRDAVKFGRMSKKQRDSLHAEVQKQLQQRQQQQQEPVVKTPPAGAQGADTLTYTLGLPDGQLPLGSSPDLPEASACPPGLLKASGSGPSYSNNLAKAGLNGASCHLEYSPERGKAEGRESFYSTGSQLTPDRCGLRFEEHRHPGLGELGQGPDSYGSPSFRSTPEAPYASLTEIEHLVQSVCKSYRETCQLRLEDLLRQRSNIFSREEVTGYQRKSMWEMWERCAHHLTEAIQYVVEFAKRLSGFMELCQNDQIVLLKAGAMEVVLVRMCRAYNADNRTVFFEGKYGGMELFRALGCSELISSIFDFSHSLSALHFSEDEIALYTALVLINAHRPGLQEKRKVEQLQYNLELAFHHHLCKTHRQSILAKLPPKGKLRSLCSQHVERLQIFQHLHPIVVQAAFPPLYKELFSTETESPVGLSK
smiles,measurement,setting,value
CCNc1ncc2nc(-c3ccc(OC)cc3)c(=O)n(CCOC)c2n1,"activity change, negative = inhibition",[1],inactive: -6.96% [at 7.69 µM]
same,Potency,[2],inactive
same,Potency,[3],inactive
CC(CCC(=O)O)(c1ccc(O)cc1)c1ccc(O)cc1,"activity change, negative = inhibition",[1],inconclusive: 8.29% [inhibitor] [at 7.69 µM]
same,"activity change, negative = cytotoxicity",[4],inactive: -6.85%
same,Potency,[2],inactive
same,Potency,[5],inactive
same,cytotoxicity (dead cells),[6],inconclusive: 35.6% [cytotoxic]
same,Potency,[7],inactive
same,Potency,[8],"inconclusive: 50.1 µM [inhibitor, partial curve, poor fit]"
same,Potency,[9],active: 12.6 µM
same,"activity, negative = inhibition",[10],inconclusive: 5.14%
same,Potency,[11],"inconclusive: 0.0891 µM [side channel, falling, full curve, poor fit]"
same,activity change % (negative = inhibition),[11],inactive: -0.624%
same,Potency,[12],inactive
same,Potency,[13],"inconclusive: 33.5 µM [inhibitor, single point]"
Cc1cnc(CNc2cc(-c3ccoc3)ncn2)cn1,"activity change, negative = inhibition",[1],inactive: -2.94% [at 7.69 µM]
same,Potency,[3],"inconclusive: 56.2 µM [inhibitor, partial curve, poor fit]"
Cc1cccc(CNc2cc(-c3ccc(N(C)C)cc3)ncn2)c1,"activity change, negative = inhibition",[1],inconclusive: -16% [inhibitor] [at 7.69 µM]
same,Potency,[14],"inconclusive: 3.16 µM [inhibitor, single point]"
same,Potency,[3],"inconclusive: 39.8 µM [inhibitor, partial curve]"
O=C(O)c1cc2c(cc1S(=O)(=O)O)[C@H]1[C@@H]([C@H]3[C@H]2[C@@]2(Cl)C(Cl)=C(Cl)[C@]3(Cl)C2(Cl)Cl)[C@]2(Cl)C(Cl)=C(Cl)[C@@]1(Cl)C2(Cl)Cl,"activity change, negative = inhibition",[1],inactive: 5.22% [at 7.69 µM]
same,Potency,[15],"inconclusive: 3.16 µM [inhibitor, partial curve]"
same,activation,[14],inconclusive: -7.52%
CN(C)CCCN1c2ccc3ccccc3c2Sc2cccc(Cl)c21,"activity change, negative = inhibition",[1],inconclusive: 38.2% [activator] [at 7.69 µM]
same,Potency,[16],"inconclusive: 7.94 µM [inhibitor, single point]"
same,Potency,[14],"inconclusive: 3.98 µM [inhibitor, single point]"
O=C(c1cccc(F)c1)N1CCC2(CCCN(C(c3ccccc3)c3ccccc3)C2)CC1,"activity change, negative = inhibition",[1],inconclusive: 139% [activator] [at 7.69 µM]
same,Potency,[5],"inconclusive: 5.01 µM [inhibitor, full curve, poor fit]"
same,Potency,[14],"inconclusive: 3.98 µM [inhibitor, single point]"
